Test results as given in the supplement of paper PMC8512760.
Some of the results follow. Single values are uncertain, as repeats are few or missing.

Columns and labels:
Assay in all cases: cell viability relative to vehicle (% of vehicle); basal-like triple-negative breast cancer lines; higher = less cytotoxic
Settings in all cases: 10 µM; 72 h
HCC-1143 = test system: HCC-1143
HCC-1187 = test system: HCC-1187
MDA-468 = test system: MDA-468
SUM-149 = test system: SUM-149
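Further: stably firefly luciferase-GFP labeled cells in 96-well plates, viability read as luciferase photon flux after d-luciferin addition, treated wells normalized to vehicle wells, single-dose high-throughput screen.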

Row | Compound | cell viability (HCC-1143) | cell viability (HCC-1187) | cell viability (MDA-468) | cell viability (SUM-149)
1 | CCNC1(C(N)=O)CCN(c2ncnc3c2nc(-c2ccccc2Cl)n3-c2ccc(Cl)cc2)CC1.Cl | 83.6 | 102 | 100 | 86.4
2 | CN1CCCN=C1C=Cc1cccs1.O=C(O)c1cc2ccccc2c(Cc2c(O)c(C(=O)O)cc3ccccc23)c1O [Pyrantel Pamoate] | 81.2 | 90.2 | 112 | 98.9
3 | Cc1ccsc1C(=CCCN1CCC[C@@H](C(=O)O)C1)c1sccc1C [Tiagabine] | 69.5 | 79.6 | 105 | 88.1
4 | CC(=O)Oc1cccc2c1C(=O)c1c(OC(C)=O)cc(C(=O)O)cc1C2=O [Diacerein] | 94.3 | 96.7 | 128 | 114
5 | CCC(NC(=O)C(C)NC)C(=O)N1CC(O)CC1Cc1c(-c2[nH]c3cc(F)ccc3c2CC2CC(O)CN2C(=O)C(CC)NC(=O)C(C)NC)[nH]c2cc(F)ccc12 (stereo not drawn) | 83.3 | 41.1 | 96.4 | 39.1
6 | CC1(C)Cc2c(-c3ccccc3)c(-c3ccc(Cl)cc3)c(CC(=O)O)n2C1 [Licofelone] | 88.8 | 88.5 | 114 | 115
7 | CCN(CC)CCOC(=O)C(c1ccccc1)c1ccccc1.Cl [Adiphenine HCl] | 72.4 | 82.6 | 109 | 126
8 | CC(c1ncncc1F)C(O)(Cn1cncn1)c1ccc(F)cc1F (stereo not drawn) [Voriconazole] | 92.8 | 71 | 87.6 | 112
9 | Cl.O=C(O)C=Cc1ccc(Cn2ccnc2)cc1 [Ozagrel HCl] | 81.7 | 91.1 | 112 | 113
10 | O=C1CCc2ccc(OCCCCN3CCN(c4cccc(Cl)c4Cl)CC3)cc2N1 [Aripiprazole] | 72.8 | 108 | 96.8 | 106
11 | COc1ccc2c(c1)c(CC(=O)OCC(=O)O)c(C)n2C(=O)c1ccc(Cl)cc1 [Acemetacin] | 84.7 | 72.2 | 94 | 110
12 | NC(=O)NO [Hydroxyurea] | 83.7 | 95.1 | 115 | 102
13 | CN(C)C(=O)COC(=O)Cc1ccc(OC(=O)c2ccc(N=C(N)N)cc2)cc1.CS(=O)(=O)O [Camostat Mesilate] | 80.7 | 87.8 | 94.6 | 82.4
14 | CC(C)=CCCC(C)=CCCC(C)=CCSc1ccccc1C(=O)O [Salirasib] | 49.2 | 51.9 | 78.3 | 155
15 | O=C(Nc1nc2cccc(-c3ccc(CN4CCS(=O)(=O)CC4)cc3)n2n1)C1CC1 | 65.7 | 51.8 | 102 | 111
16 | Clc1ccccc1C(c1ccccc1)(c1ccccc1)n1ccnc1 [Clotrimazole] | 79.9 | 101 | 105 | 90.4
17 | Cl.Nc1ccn(C2OC(CO)C(O)C2O)c(=O)n1 (stereo not drawn) [Cytarabine hydrochloride] | 75.2 | 64 | 102 | 196
